Experimental data taken from publication PMC4336329 (PLoS ONE, 2015).
In all, about 310,000 compounds went through this assay and about 2,200 (0.71%) showed an effect of 50% or more. Effects have a minus sign here. The list shows a part of the results.

What follows are compounds tested against human ether-à-go-go-related gene (hERG) potassium channel (human, UniProt Q12809) (assay: primary screen, population patch clamp on CHO cells stably expressing hERG).
human ether-à-go-go-related gene (hERG) potassium channel, sequence (Q12809 whole entry, looked up): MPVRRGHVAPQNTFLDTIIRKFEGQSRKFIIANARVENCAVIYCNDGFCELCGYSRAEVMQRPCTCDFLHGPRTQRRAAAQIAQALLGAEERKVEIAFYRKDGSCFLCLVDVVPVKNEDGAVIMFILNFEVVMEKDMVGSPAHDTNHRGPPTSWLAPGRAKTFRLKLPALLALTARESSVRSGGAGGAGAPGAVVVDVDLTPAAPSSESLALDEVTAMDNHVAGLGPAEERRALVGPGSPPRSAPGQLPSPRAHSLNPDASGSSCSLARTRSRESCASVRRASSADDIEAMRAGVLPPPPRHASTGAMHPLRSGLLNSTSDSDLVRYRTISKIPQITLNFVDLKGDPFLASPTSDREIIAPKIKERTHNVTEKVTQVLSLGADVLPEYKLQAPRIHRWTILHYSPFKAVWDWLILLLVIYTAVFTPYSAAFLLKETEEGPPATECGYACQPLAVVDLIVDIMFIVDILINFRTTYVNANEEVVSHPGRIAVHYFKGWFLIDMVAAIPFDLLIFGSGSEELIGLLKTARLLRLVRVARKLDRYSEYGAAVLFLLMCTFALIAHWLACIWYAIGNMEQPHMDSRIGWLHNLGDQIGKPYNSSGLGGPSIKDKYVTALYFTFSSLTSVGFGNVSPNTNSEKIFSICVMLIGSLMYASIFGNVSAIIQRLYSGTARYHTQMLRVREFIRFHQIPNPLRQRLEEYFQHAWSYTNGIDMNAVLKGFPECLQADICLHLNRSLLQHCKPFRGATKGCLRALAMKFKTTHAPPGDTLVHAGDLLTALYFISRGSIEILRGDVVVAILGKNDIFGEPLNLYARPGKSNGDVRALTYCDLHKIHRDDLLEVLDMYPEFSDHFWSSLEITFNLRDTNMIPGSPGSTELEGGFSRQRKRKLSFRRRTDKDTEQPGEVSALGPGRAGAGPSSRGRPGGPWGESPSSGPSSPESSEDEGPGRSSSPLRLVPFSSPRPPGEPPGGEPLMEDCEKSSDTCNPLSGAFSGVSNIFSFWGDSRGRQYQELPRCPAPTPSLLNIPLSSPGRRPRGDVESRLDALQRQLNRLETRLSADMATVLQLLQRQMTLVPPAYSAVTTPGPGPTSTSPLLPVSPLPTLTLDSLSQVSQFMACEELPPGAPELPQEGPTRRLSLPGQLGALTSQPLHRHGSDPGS

Going from Cc1ccc(CNC(=O)C(=O)NCC2OCCN2S(=O)(=O)c2ccc(Cl)cc2)cc1 (stereo not drawn) to COc1ccc(CNC(=O)/C=C/c2ccc(S(=O)(=O)N3CCOCC3)cc2)cc1, the “hERG current change (%, negative = inhibition) at 1uM” value rises from -3.01% to 6.02%.

Compared with O=C(CNC(=S)NC(=O)c1ccc(Cl)cc1)c1ccccc1, CC(=O)Nc1cc(C(=O)NCc2ccco2)ccc1Sc1ccc(Cl)cc1 is lower in “hERG current change (%, negative = inhibition) at 1uM” value: 15% for the first, 0.469% for the second.

Going from O=C(CC1(O)C(=O)N(CCc2ccccc2)c2ccccc21)c1ccco1 (stereo not drawn) to CN(C)C(=O)c1ccc(-c2nnc(NCc3ccccc3)c3ccccc23)cc1, the “hERG current change (%, negative = inhibition) at 1uM” value falls from -0.106% to -10.8%.

Compared with CCCCNC(=O)CN(CCc1ccccc1)S(C)(=O)=O, CCCCNC(=O)NC1(C(F)(F)F)Oc2ccccc2O1 is higher in “hERG current change (%, negative = inhibition) at 1uM” value: 0.874% for the first, 1.29% for the second.

Going from CC(C)N1C(=O)N(c2cccc(Cl)c2)C(C)(O)CC1(C)C (stereo not drawn) to CC(=O)C1C(=O)CC(C)(O)C(C(C)=O)C1c1ccccc1 (stereo not drawn), the “hERG current change (%, negative = inhibition) at 1uM” value falls from 14.4% to 12.3%.

First: O=C(c1ccccc1)N1CCCCC(Sc2nnc3ccccn23)C1=O (stereo not drawn)
Second: CC(NC(=O)c1ccc(OC2CCN(Cc3ccccn3)CC2)cc1)c1ccccc1 (stereo not drawn)
The “hERG current change (%, negative = inhibition) at 1uM” value of the first is higher: 17% for the first, 0.843% for the second.

First: O=C(NCCC1=CCCCC1)NC12CC3CC(CC(C3)C1)C2
Second: O=C(C1CC1)N1CCc2cc(Br)cc(S(=O)(=O)NC3CCCCC3)c21
The “hERG current change (%, negative = inhibition) at 1uM” value of the first is lower: 0.57% for the first, 10.8% for the second.

First: CCOc1ccccc1NC(=O)C1=C(C)NC(=O)NC1c1cccc(OC)c1OC (stereo not drawn)
Second: CCOc1ccccc1OCC(=O)OCC(=O)NNC(=O)c1ccc([N+](=O)[O-])cc1
The “hERG current change (%, negative = inhibition) at 1uM” value of the first is higher: 16.2% for the first, 4.34% for the second.

First: CCOC(=O)C1(CCCc2ccccc2)CCN(C(=O)C2CCCO2)CC1 (stereo not drawn)
Second: CCOC(=O)C1CCN(c2cc(=O)n(-c3ccccc3Cl)c(=O)[nH]2)CC1
The “hERG current change (%, negative = inhibition) at 1uM” value of the first is lower: 5.58% for the first, 12.2% for the second.

Compared with Cc1ccc(C2(O)CC(C)N(C)CC2C)cc1 (stereo not drawn), Cc1ccc(OCCC(=O)OC(C)C(=O)NC2CC2)cc1 (stereo not drawn) is lower in “hERG current change (%, negative = inhibition) at 1uM” value: 14.6% for the first, 13.1% for the second.

Compared with COc1cc(C(=S)N2CCCC2)cc(Cl)c1OCC(=O)Nc1ccc(C)cc1C, CCOC(=O)c1c(C)[nH]c(C(=O)OCC(=O)Nc2cc(C)ccc2OC)c1C is lower in “hERG current change (%, negative = inhibition) at 1uM” value: 9.32% for the first, 9.06% for the second.

Going from CCOC(=O)CCC(=O)NNC(=O)COc1ccc(C(C)C)cc1Br to CNC(=O)COC(=O)c1ccccc1NC(=O)c1ccco1, the “hERG current change (%, negative = inhibition) at 1uM” value falls from -2.35% to -8.43%.

First: COc1cc(-c2nc(-c3ccc(NC(=O)c4ccc5c(c4)OCO5)cc3)no2)cc(OC)c1OC
Second: COc1ccc(Nc2nc(Cl)nc(Nc3ccc(OC)cc3OC)n2)c(OC)c1
The “hERG current change (%, negative = inhibition) at 1uM” value of the first is higher: 12.7% for the first, 9.71% for the second.

First: O=C(Cn1nc(C(F)(F)F)cc1C1CC1)NCc1ccccc1F
Second: N#Cc1cn(CC(=O)NCC2CCCO2)c2ccccc12 (stereo not drawn)
The “hERG current change (%, negative = inhibition) at 1uM” value of the first is lower: 9.54% for the first, 9.64% for the second.

Going from COc1ccc(-c2nnc(SCc3nnc(-c4ccccc4)o3)n2C)cc1OC to COc1ccc(C2C3=C(OC(C)=O)c4ccccc4C3=Nc3c2c(=O)n(C)c(=O)n3C)cc1 (stereo not drawn), the “hERG current change (%, negative = inhibition) at 1uM” value rises from -18.8% to 7.97%.

First: CC(C)OC(=S)N/C(=N\S(=O)(=O)c1ccccc1)c1ccccc1
Second: O=C(CS(=O)(=O)c1ccccc1)Nc1ccc(Cl)cn1
The “hERG current change (%, negative = inhibition) at 1uM” value of the first is lower: 3.61% for the first, 6.63% for the second.

Compared with O=C(OCCN=C1NS(=O)(=O)c2ccccc21)c1ccco1, CC(=NCc1ccco1)C1=C(O)c2ccccc2C1=O is lower in “hERG current change (%, negative = inhibition) at 1uM” value: 11.5% for the first, 2.47% for the second.

First: C=C(C)c1cccc(C(C)(C)NC(=O)Nc2ccc(C)cn2)c1
Second: Cc1ccc(-c2csc(NC(=O)c3cccs3)n2)cc1
The “hERG current change (%, negative = inhibition) at 1uM” value of the first is lower: 12.1% for the first, 13.5% for the second.

Compared with COCCCNc1nc2ccccc2nc1NS(=O)(=O)c1ccc(OC)cc1, Cc1cc(C)nc(NS(=O)(=O)c2ccc(NC(=O)CCC3COc4ccccc4O3)cc2)n1 (stereo not drawn) is lower in “hERG current change (%, negative = inhibition) at 1uM” value: 12.6% for the first, 3.52% for the second.

First: COc1ccc(/C=N/NC(=O)c2ccn[nH]2)cc1COc1ccc(Cl)cc1Cl
Second: COc1ccc(OC)c(NC(=O)c2ccc(S(=O)(=O)N3CCN(C)CC3)cc2)c1
The “hERG current change (%, negative = inhibition) at 1uM” value of the first is lower: 6.11% for the first, 6.54% for the second.

Going from CC(C)Cc1nnc(NC(=O)CCC(=O)N2CCN(c3ccc(Cl)cc3)CC2)s1 to CCOC(=O)N1CCN(C(=O)CCSc2ccc(Cl)cc2)CC1, the “hERG current change (%, negative = inhibition) at 1uM” value falls from 10.4% to -20.4%.

Compared with O=C(CS(=O)(=O)c1ccc(Cl)cc1)NCCS(=O)(=O)c1ccc(Cl)cc1, CSc1ccc(CSCC(=O)N2CCN(S(=O)(=O)c3ccc(C)cc3C)CC2)cc1 is higher in “hERG current change (%, negative = inhibition) at 1uM” value: -13.2% for the first, 4.65% for the second.

Compared with O=C(CCCCCn1c(=S)[nH]c2ccsc2c1=O)NC1CCCCC1, COc1ccc(Br)c(C(=O)OCC(=O)NC2CCCCCC2)c1 is lower in “hERG current change (%, negative = inhibition) at 1uM” value: 6.47% for the first, -1.39% for the second.

Going from Cc1cccc(NC(=O)/C(C#N)=C/c2cn(CC(=O)NCc3ccco3)c3ccccc23)c1C to Cc1c(C(=O)OCC(=O)N(CCC#N)c2ccccc2)oc2c1ccc1ccccc12, the “hERG current change (%, negative = inhibition) at 1uM” value rises from -9.93% to 6.58%.

Going from N#Cc1cn(CC(=O)O)c2ccccc12 to c1ccc(CCNC2=NCCS2)cc1, the “hERG current change (%, negative = inhibition) at 1uM” value rises from 5.61% to 10.7%.

Compared with O=C(NCCN1CCOCC1)c1c(O)nc2sccn2c1=O, Cc1ccc(-c2csc(NC(=O)C3=NN(C4CCS(=O)(=O)C4)C(=O)CC3)n2)cc1 (stereo not drawn) is lower in “hERG current change (%, negative = inhibition) at 1uM” value: 18.8% for the first, 3.07% for the second.

Going from CCOC(=O)C1=C(C)NC(=O)NC1C1CC=CCC1 (stereo not drawn) to CCOC(=O)C(C(=O)OCC)N(C#N)c1nc(SC)nc(N(C)C)n1, the “hERG current change (%, negative = inhibition) at 1uM” value falls from 9.44% to -1.13%.

First: CCOc1ccc(C2C(C#N)=C(N)Oc3cc(C)n(CCN(C)C)c(=O)c32)cc1OCC (stereo not drawn)
Second: CC(C)CN(C(=O)COC(=O)CCc1nc2ccccc2s1)c1c(N)n(Cc2ccccc2)c(=O)[nH]c1=O
The “hERG current change (%, negative = inhibition) at 1uM” value of the first is lower: -14.9% for the first, 9.03% for the second.

With CC(C)CCN1C(N(C)C)=NC[C@@H]1C the “hERG current change (%, negative = inhibition) at 1uM” value was 17%.
